# Measurements from PubChem BioAssay AID651815 (National Center for Advancing Translational Sciences (NCATS), 2012).
# Screen size: about 2,100 compounds; about 1,100 (52%) were called active. So high a share suggests a set chosen from earlier hits. This list was built around the results that the source calls inconclusive (neither active nor inactive); the mix of calls is not that of the screen. The call rests on the fitted dose curve; in most records, active means well fitted inhibition curve with a large enough effect; inconclusive means small, poorly fitted or top-dose-only effect; inactive means no such curve, though single readings can be large or run the other way. Potencies of inconclusive entries are left out as doubtful fits.
# Biological target: DNA dC->dU-editing enzyme APOBEC-3F (Homo sapiens) (UniProt Q8IUX4)
# Assay: qHTS for inhibitors of Vif-A3F interactions: Cherry picks counterscreen; further: nearly all actives have a fitted effect of over 65% in size
# Settings: HeLa A3F-eYFP/Vif cells, eYFP fluorescence, 24 h; series mostly up to 46.1 µM; activity, negative = inhibitor: at the top concentration
# Procedure, shortened: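 HeLa cells stably expressing A3F-eYFP and Vif, cultured overnight, then treated 24 h at 37 degrees C with compounds at several concentrations; yellow fluorescence (488 nm Ex/500-530 nm Em) imaged on Acumen; MG132 positive control.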
# On the % scale 0 is the no-effect control and ±100 the full control effect; potency means the concentration at half of the fitted maximal effect; tags describe the fitted curve by direction and shape.
# Sequence of UniProt Q8IUX4 (Q8IUX4 whole entry, looked up): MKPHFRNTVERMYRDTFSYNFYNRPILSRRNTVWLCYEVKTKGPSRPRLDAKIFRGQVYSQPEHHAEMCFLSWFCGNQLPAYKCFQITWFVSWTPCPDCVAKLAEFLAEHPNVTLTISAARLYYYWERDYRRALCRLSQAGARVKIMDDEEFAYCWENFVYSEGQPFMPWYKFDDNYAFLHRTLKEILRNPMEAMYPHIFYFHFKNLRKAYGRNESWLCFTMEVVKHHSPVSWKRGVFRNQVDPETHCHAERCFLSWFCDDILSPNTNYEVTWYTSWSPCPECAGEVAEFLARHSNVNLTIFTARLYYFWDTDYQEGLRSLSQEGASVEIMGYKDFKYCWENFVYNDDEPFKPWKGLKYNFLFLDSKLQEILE
SMILES,Potency,"activity, negative = inhibitor"
O=C1/C(=C\c2ccc(O)c(O)c2)SC(=S)N1Cc1ccccc1,"inconclusive [inhibitor, partial curve]",
Cc1nnc(NC(=O)c2sc3nc(-c4cccs4)cc(C(F)(F)F)c3c2N)s1,active: 6.51 µM,
O=C(O)CSc1c2ccccc2cc2ccccc12,,inactive: -5.3% [at 36.9 µM]
CCOC1=C/C(=C/c2c(N)n3nc(-c4ccccc4)sc3nc2=O)C=CC1=O,,inactive: 7.32%
CCN(CC)c1ccc2cc(-c3nc(-c4ccccc4)no3)c(=O)oc2c1,"inconclusive [inhibitor, full curve, poor fit]",
O=C(Cc1ccccc1)NCc1ccc(-n2cccc2)cc1,"inconclusive [inhibitor, full curve]",
Cc1ccccc1/C=C\c1nc2ccccc2c(=O)[nH]1,"inconclusive [inhibitor, partial curve, poor fit]",
COc1ccc2nc(NC(=O)c3ccc([N+](=O)[O-])o3)sc2c1,"inconclusive [inhibitor, single point]",
COc1nc(-c2ccccc2)cc(-c2ccc3c(c2)OCO3)c1C#N,"inconclusive [inhibitor, full curve]",
CCN1C(=O)/C(=C/C=C2\N(CC)c3cc(S(=O)(=O)N(C)C)ccc3N2c2ccccc2)SC1=S,active: 6.27 µM,
Cc1ccc(/C=C2/NC(=O)N(Cc3ccccc3F)C2=O)s1,active: 4.11 µM,
Cc1ccc(S(=O)(=O)Nc2cc(Cl)c(O)c3ncccc23)cc1,,inactive: -18.6% [at 36.9 µM]
CC[N+](C)(C(=O)O)/C(=C\c1ccccc1)c1ccnc2ccccc12 (stereo unspecified),active: 18.4 µM,
CC1=CC(C)(C)Nc2ccc(OC(=O)CN3C(=O)C4CCCCC4C3=O)cc21 (stereo unspecified),"inconclusive [inhibitor, single point]",
COc1ccc(S(=O)(=O)N2c3ccccc3OCC2CC(=O)O)cc1 (stereo unspecified),"inconclusive [inhibitor, single point]",
COc1cccc2nccc(/C=C/c3ccc(N(C)C)cc3)c12,active: 20.6 µM,
CC(C)(C)OC(=O)NCc1ccc(NC(=O)c2nc[nH]c2C(=O)NCCCNC(=O)c2[nH]cnc2C(=O)Nc2ccc(CNC(=O)OC(C)(C)C)cc2)cc1,"inconclusive [inhibitor, single point]",
O=C1CCC/C(=N/NC(=O)c2sc3ccccc3c2Cl)C1,"inconclusive [inhibitor, single point]",
COC(=O)C1=C(Nc2ccc(C)cc2)C=C(C)C(C(=O)OC)C1c1cccc(OC)c1 (stereo unspecified),"inconclusive [inhibitor, single point]",
C=C(C)CNC(=S)NNC(=O)c1ccco1,,inactive: -0.583% [at 36.9 µM]
COc1ccc(NC(=O)COC(=O)c2cc(OC)c(OC)cc2NC(=O)c2ccco2)cc1OC,"inconclusive [inhibitor, partial curve, poor fit]",
C/C(CCc1ccc2c(c1)OCO2)=N\NC(=S)NC(C)C,,inactive: 12.8%
Cc1sc2nc(CSCC(=O)Nc3ccccc3C#N)[nH]c(=O)c2c1C,,inactive: -1.56%
N#Cc1c(NC(=O)/C=C/C(=O)O)sc2c1CCN(Cc1ccccc1)C2,"inconclusive [inhibitor, single point]",

SMILES,Potency,"activity, negative = inhibitor"
CC(C)(C)C(=O)/C(=C/c1ccc(Cl)cc1)n1cncn1,"inconclusive [inhibitor, partial curve]",
CCOC(=O)C1=C(C)N(CC(C)C)C(=O)/C1=C\c1cccs1,"inconclusive [inhibitor, single point]",
O=C(Nc1cc(F)cc(F)c1)c1ccc(NCCc2ccccc2)c([N+](=O)[O-])c1,"inconclusive [inhibitor, single point]",
Cc1nc(NC(=O)/C=C/c2ccco2)sc1C,"inconclusive [inhibitor, partial curve]",
COCCN(CCOC)Cc1c(O)ccc2c1O/C(=C\c1ccc(C)o1)C2=O,,inactive: -6.56%
Fc1cccc(F)c1/C=N/NC(=S)Nc1cccnc1,,inactive: 4.36%
CC(=O)Nc1ccc(S(=O)(=O)Nc2nc3ccccc3nc2Nc2ccc3ccccc3c2)cc1,"inconclusive [inhibitor, partial curve, poor fit]",
CCOc1ccc2nc(N3C(=O)/C(=C/c4ccc(Cl)cc4)NC3=S)sc2c1,"inconclusive [inhibitor, single point]",
COc1ccc(-n2cc3c(-c4cccc(Br)c4)nnc(C)c3n2)cc1,,inactive: -21.6%
COc1cccc(CNCCSc2nnnn2C)c1OCc1ccc(F)cc1,,inactive: -0.36%
CC1(C)Cc2c(sc3ncnc(NNC(=S)NCc4ccccc4)c23)CO1,"inconclusive [inhibitor, partial curve]",
CSc1nsc(/C=C/Nc2ccc(O)cc2C)c1C#N,"inconclusive [inhibitor, single point]",
O=[N+]([O-])c1ccccc1C1Nc2cccc3cccc(c23)N1,,inactive: 9.7%
COC(=O)c1sccc1NC(=S)Nc1cc(C)cc(C)c1,,inactive: 7.32%
Cc1ccc2nc(/C(C#N)=C/c3ccc(-c4ccc(C(=O)OC(C)C)cc4)o3)[nH]c2c1,active: 8.2 µM,
Cc1cc2ccccn2c1C(=O)c1ccc([N+](=O)[O-])o1,"inconclusive [inhibitor, single point]",
COc1cccc(C2Nc3ccc4ccccc4c3C3=C2C(=O)CCC3)c1O (stereo unspecified),"inconclusive [inhibitor, single point]",
O=C(Cc1cc2ccccc2o1)NCc1ccc(F)cc1,"inconclusive [inhibitor, partial curve]",
NC(=O)c1c(Nc2nc3c(F)cccc3s2)sc2c1CCCC2,"inconclusive [inhibitor, single point]",
Cc1ccc(C)c(NC(=O)N2CC=C(c3c[nH]c4ccccc34)CC2)c1,"inconclusive [inhibitor, single point]",
O=S(=O)(Nc1cccc2ncccc12)c1cccs1,"inconclusive [inhibitor, partial curve]",
Cc1cc(C)cc(NC2=NC3(CCCCC3)N=C(N)N2)c1,"inconclusive [inhibitor, single point]",
COC(=O)c1c(N2C(=O)[C@H]3[C@@H](C2=O)[C@]2(C(=O)Nc4c(C)cccc42)N2CCC[C@@H]32)sc(C)c1C,"inconclusive [inhibitor, single point]",
CC(=O)Nc1cc(-c2ccccc2CN(C)C)cn2c(-c3ccc(C(C)=O)cc3)cnc12,"inconclusive [inhibitor, single point]",

SMILES,Potency,"activity, negative = inhibitor"
O=C(Nc1nc2ccc(S(=O)(=O)N3CCCC3)cc2s1)C1CCCCC1,active: 4.44 µM,
CCn1ncc(/C=N\NC(=O)c2csc3ccccc23)c1C,active: 2.5 µM,
Cc1c(C(=O)Nc2cnccn2)oc2ccccc12,"inconclusive [inhibitor, single point]",
O=C(OCc1ccccc1)c1ccc(NCc2cc(O)ccc2O)cc1,"inconclusive [inhibitor, full curve]",
C=CCNc1nc2cc(-c3cccc(Cl)c3)sc2c(=O)n1C,"inconclusive [inhibitor, single point]",
O=C(O)c1ccccc1/C=N/Nc1ccc(S(=O)(=O)N2CCOCC2)cc1[N+](=O)[O-],,inactive: -5.64% [at 36.9 µM]
CCN1CCc2c(sc(-n3cccc3)c2C(C)NC(=O)Nc2ccc(C(=O)OC)cc2)C1 (stereo unspecified),,inactive: 8.59%
CCN(C)c1ccc(/C=N\n2nnnc2N)cc1,"inconclusive [inhibitor, full curve]",
CC[n+]1ccc(/C=C2\Sc3ccccc3N2CCCS(=O)(=O)[O-])c2ccccc21,"inconclusive [inhibitor, single point]",
CC(Nc1oc(-c2ccc(COc3ccccc3)o2)nc1C#N)c1ccccc1 (stereo unspecified),,inactive: -27.6%
Cc1ccc(NC(=O)N2CC=C(c3c[nH]c4ccccc34)CC2)cc1Cl,"inconclusive [inhibitor, single point]",
O=C(N=c1ccn(-c2nc3ccccc3nc2NS(=O)(=O)c2ccccc2)cc1)c1cccs1,,inactive: -19.2%
Cc1cc2nc(SCCOC(=O)Nc3cccc(Cl)c3)nc(C)c2cc1C,,inactive: -6.26%
Cc1ccc(SC2=C(Sc3ccc(C)cc3)C(=O)c3ccccc3C2=O)cc1,"inconclusive [inhibitor, single point]",
Cc1cc(C)c(/C=C2\C(=O)Nc3ccccc32)[nH]1,"inconclusive [inhibitor, single point]",
CC(C)c1ccc(C(=O)NCCCNC(=O)c2cnccn2)cc1,,inactive: 1.23% [at 36.9 µM]
O=C(CN1C(=O)CSc2ncccc21)Nc1cccc(Cl)c1,"inconclusive [inhibitor, single point]",
COc1ccc(COc2cc(-c3cccc(OC)c3)nc3ccc(NC(=O)C(C)C)cc23)cc1,"inconclusive [inhibitor, partial curve]",
COc1ccc(C(=O)C(C)[n+]2ccc(C)c3ccccc32)cc1[N+](=O)[O-] (stereo unspecified),,inactive: 0.317% [at 36.9 µM]
CCOC(=O)CCc1ccc(NC(=O)/C=C/c2ccc([N+](=O)[O-])o2)cc1,active: 20.6 µM,
O=C1/C(=C/c2ccccc2)CN(C(=O)CCN2CCOCC2)C/C1=C\c1ccccc1,"inconclusive [inhibitor, single point]",
CC1(C(=O)NCc2cccs2)Cc2c(-c3ccc(C(N)=O)cc3)ccnc2O1 (stereo unspecified),"inconclusive [inhibitor, partial curve]",
C/C(=N\NC(=O)c1cc(-c2ccncc2)nc2ccccc12)c1ccc(N2CCOCC2)cc1,,inactive: -25.1% [at 36.9 µM]
